Experimental data reported in paper PMC4336329 (PLoS ONE, 2015).
In all, about 310,000 compounds went through this assay and about 2,200 (0.71%) showed an effect of 50% or more. Effects have a minus sign here. The list shows a part of the results.

molecular target: human ether-à-go-go-related gene (hERG) potassium channel (human, UniProt Q12809); assay: primary screen, population patch clamp on CHO cells stably expressing hERG
Sequence (Q12809 whole entry, looked up): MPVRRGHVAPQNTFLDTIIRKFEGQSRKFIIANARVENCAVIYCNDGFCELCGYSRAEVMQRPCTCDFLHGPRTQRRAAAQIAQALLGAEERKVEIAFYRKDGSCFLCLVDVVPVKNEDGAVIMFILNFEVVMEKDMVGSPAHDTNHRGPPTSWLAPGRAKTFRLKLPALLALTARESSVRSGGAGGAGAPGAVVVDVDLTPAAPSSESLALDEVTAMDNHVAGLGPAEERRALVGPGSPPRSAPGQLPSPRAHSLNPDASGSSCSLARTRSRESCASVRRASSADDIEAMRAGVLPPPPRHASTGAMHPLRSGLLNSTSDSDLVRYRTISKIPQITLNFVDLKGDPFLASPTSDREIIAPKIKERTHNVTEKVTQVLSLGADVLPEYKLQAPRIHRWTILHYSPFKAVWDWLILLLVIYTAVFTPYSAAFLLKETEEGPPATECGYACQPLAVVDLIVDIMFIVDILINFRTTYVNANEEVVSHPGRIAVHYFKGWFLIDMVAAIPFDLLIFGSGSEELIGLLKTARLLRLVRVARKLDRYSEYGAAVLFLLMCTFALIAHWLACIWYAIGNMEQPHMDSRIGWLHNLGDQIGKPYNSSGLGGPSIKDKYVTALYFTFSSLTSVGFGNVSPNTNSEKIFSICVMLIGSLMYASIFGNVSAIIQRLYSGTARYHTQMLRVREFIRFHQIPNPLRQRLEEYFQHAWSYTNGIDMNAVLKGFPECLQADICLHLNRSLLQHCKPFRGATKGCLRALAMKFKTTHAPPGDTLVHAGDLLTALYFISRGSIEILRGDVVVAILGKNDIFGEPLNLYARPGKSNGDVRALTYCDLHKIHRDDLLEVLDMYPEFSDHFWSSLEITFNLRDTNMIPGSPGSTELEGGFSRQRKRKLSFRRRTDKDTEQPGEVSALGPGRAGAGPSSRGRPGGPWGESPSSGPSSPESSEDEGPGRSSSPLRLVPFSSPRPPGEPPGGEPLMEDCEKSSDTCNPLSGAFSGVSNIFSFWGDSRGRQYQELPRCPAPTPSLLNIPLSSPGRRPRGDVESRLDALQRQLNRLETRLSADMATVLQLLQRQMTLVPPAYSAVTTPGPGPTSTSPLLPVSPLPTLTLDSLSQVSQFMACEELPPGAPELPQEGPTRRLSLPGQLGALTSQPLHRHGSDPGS

SMILES	hERG current change (%, negative = inhibition) at 1uM
CCc1nc(C)cn1S(=O)(=O)c1ccc([N+](=O)[O-])cc1	8.97%
Cc1cc(C)nc(NC(=O)CSc2nnnn2-c2ccccc2)n1	-4.26%
CSCCC(N=CC1=C(O)CC(C)(C)CC1=O)C(=O)O (centres unmarked)	7.35%
Cn1c(=O)c2c(nc(SCCN3CCOCC3)n2Cc2ccc(F)cc2)n(C)c1=O	-4.01%
CCN(CCn1cccn1)C(=O)CCc1nnc(Cc2c[nH]c3ccccc23)o1	3.23%
CCCn1c(/N=C/c2ccccc2O)nc2ccccc21	21%
CN(C(=O)c1ccco1)c1nc(-c2ccccc2)cs1	10.4%
C[N+]1(CCN2C(=O)C3CC=C(Cl)CC3C2=O)CCOCC1.[Br-] (centres unmarked)	10.4%
COC(=O)c1cc(=O)n(CCc2ccccc2F)c(=Nc2ccc(F)c(Cl)c2)s1	13.1%
CCOc1ccc(-c2nnn(CC(=O)NCc3ccco3)n2)cc1OCC	-7.4%
COC(=O)C1CSC(C)(C)C(=O)N1 (centres unmarked)	8.39%
CCOC(=O)N1CCC(Nc2c(NCCCN(CC)c3cccc(C)c3)c(=O)c2=O)CC1	6.98%
O=S(=O)(NCCc1cccs1)c1ccc(Br)cc1	-3.21%
O=C(Nc1nc2ccsc2c(=O)s1)C1CCC1	7.31%
COc1ccc(NC(=O)c2ccc(Cl)c(S(=O)(=O)N3CCc4ccccc4C3)c2)cn1	-0.996%
Cc1ccccc1-n1c(SCC(=O)N/N=C/C=C/c2ccccc2[N+](=O)[O-])nc2ccccc2c1=O	11%
CCCN1C(=O)C(Cc2nc3ccccc3c(=O)n2C)c2ccccc21 (centres unmarked)	3.08%
Cc1ccc(NS(=O)(=O)c2cc(N)ccc2Cl)c(C)c1	3.91%
Cc1ccc(NC(=O)Cn2nnc(-c3ccccc3NC(=O)c3cccs3)n2)cc1	23%
O=C(c1ccco1)N(Cc1ccc(Cl)cc1)C1CCS(=O)(=O)C1 (centres unmarked)	-2.75%
COC(=O)c1ccc(C(=O)OC)c(NC(=O)CCC(=O)O)c1	2.44%
Cc1onc(-c2ccccc2Cl)c1NC(=O)NCc1cccs1	4.83%
COc1ccc(-c2nc(CN3CCN(Cc4cccc(Cl)c4)CC3)c(C)o2)cc1	17.2%

SMILES	hERG current change (%, negative = inhibition) at 1uM
CC(Oc1ccccc1)C(=O)NC1CCN(Cc2ccccc2)CC1 (centres unmarked)	-5.84%
COC(=O)c1c(NC(=O)CN2CCN(C(=O)c3ccco3)CC2)c2cc(C)ccc2n1C	13.7%
COC(=O)Cc1cc(OC)c(OC)cc1S(=O)(=O)N(C)C	3.4%
Clc1ccc2nc(N3CCCCC3)sc2c1	12.2%
CCNC(=O)CSc1nnc(C2CC2)n1-c1ccccc1	8.39%
Cc1cc(C(=O)CC#N)c(C)n1-c1c(C)n(C)n(-c2ccccc2)c1=O	14.3%
Cc1ccccc1N(Cc1ccccc1F)S(C)(=O)=O	0.682%
CCOCCCNC(=O)C1CCCN(S(=O)(=O)c2ccc(-n3cnnn3)cc2)C1 (centres unmarked)	-0.875%
CCN(CC)S(=O)(=O)c1cc(Br)ccc1OC	8.87%
CCOC(=O)c1cnc(SCC(=O)N2CCN(c3ccccc3)CC2)nc1N	-3.43%
O=C(NCc1cc(C(F)(F)F)cc(C(F)(F)F)c1)C1CC(c2ccccc2[N+](=O)[O-])=NO1 (centres unmarked)	0.283%
CCCCCCSC1=C(C#N)C(c2ccccc2)CC(=O)N1 (centres unmarked)	5.54%
S=C1NC2(CCCCC2)N=C1c1ccccc1	6.68%
Cc1ccc(NC(=S)Nc2cccnc2)c(S(=O)(=O)N2CCCCC2)c1	11.4%
Cc1cccc(C)c1OCc1cc(C(=O)N2CCC(c3ccccc3)CC2)no1	12.4%
CN(C1CCCCC1)S(=O)(=O)c1ccc(=S)[nH]c1	10.9%
Cc1ccc(N2CCN(/N=C/c3cccnc3)CC2)cc1	9.56%
COc1ccccc1N1CCN(CCN2C(=O)CC3(CCCC3)CC2=O)CC1.Cl	4.34%
CC(C)(C)c1ccc(NC(=O)Nc2ccc(F)cc2)cc1	13%
Cc1ccc(NC(=O)CCl)cc1S(=O)(=O)N1CCCCCC1	-22.9%
CCOc1ccc(N(CC(=O)NCc2ccc(OC)cc2)C(=O)CCC(=O)Nc2nccs2)cc1	5.97%
COc1ccccc1NC(=O)CSc1n[nH]c(-c2cccnc2)n1	14.5%
O=C(CNC(=O)c1ccc(Br)o1)OCc1ccc(Br)cc1	13.9%

SMILES	hERG current change (%, negative = inhibition) at 1uM
COc1ccc(CCNCC(O)COc2ccc(Cl)cc2)cc1OC.Cl (centres unmarked)	-56%
CCc1nn(C(C)C(=O)N2CCc3ccccc3C2)c(=O)c2cc3occc3n12 (centres unmarked)	-1.41%
CCC(C)[C@H](N)C(=O)NCC1CCC(C(=O)N[C@@H](Cc2ccccc2)C(=O)O)CC1.Cl (some centres unmarked)	4.48%
CC(C)(C)NC(=O)CCCCCCCC(=O)NC(C)(C)C	9.26%
Nn1c(SCC(=O)NCc2ccc3c(c2)OCO3)nnc1C1CC1	16.6%
COc1ccc(CSc2cccc3cccnc23)cc1[N+](=O)[O-]	13.8%
S=C(c1ccc(OCc2ccccc2)cc1)N1CCCC1	12.8%
NS(=O)(=O)c1ccc(CNC(=O)CSc2ccccc2)cc1	19.9%
Cc1cc(Br)ccc1SCC(=O)OCC(=O)Nc1ncc(C(F)(F)F)cc1Cl	15.2%
O=C1c2ccccc2C(=O)N1CCC#Cc1ccc2cc(C3(O)CCCCC3)oc(=O)c2c1	-0.0489%
Cc1ccc(C(=O)Nc2cccc(N3C(=O)C4CCC(C)CC4C3=O)c2)cc1 (centres unmarked)	2.68%
COC(=O)[C@@H]1C[C@@]2(O)[C@H](O)[C@H](O)[C@H](O)C[C@H]2N1Cc1ccccc1OS(=O)(=O)c1ccc(C)cc1	7.23%
CC(C)(C)c1ccc(C(=O)NCC(=O)OCN2C(=O)c3ccccc3C2=O)cc1	-1.63%
CC(CCc1ccccc1)NC(=O)COC(=O)c1ccccc1Br (centres unmarked)	15%
Cc1ccc(Cl)cc1N1CCN(C(=O)C2CCN(c3nnc(-n4cccc4)s3)CC2)CC1	7%
COc1ccc(COC(=O)CCS(=O)(=O)c2ccc(C)cc2)cc1F	3.94%
COc1ccc(OCC(=O)O/N=C(\N)Cc2ccc(Cl)cc2Cl)cc1	6.98%
CCN1CCN(C(=O)C(C)Sc2nnc3nc(C)cc(C)n23)CC1 (centres unmarked)	-2.49%
N=C1/C(=C/c2ccc(OC(=O)c3ccco3)cc2)C(=O)N=C2SC=CN12	17.7%
O=C(NC(=S)N1CCN(c2ccc([N+](=O)[O-])cc2)CC1)c1ccccc1Cl	-11%
CCOc1ccc(CCNC(=O)Nc2cccc(OC)c2)cc1OCC	14.8%
O=C(c1cc(-c2ccccc2)nc2ccccc12)N1CCOCC1	15.4%
CN(C)c1ccc(/C=N/NC(=O)c2cnc3ccccc3c2)cc1	7.84%

SMILES	hERG current change (%, negative = inhibition) at 1uM
O=C(CCN1C(=O)c2ccncc2C1=O)Nc1ccc(F)cc1	12.2%
Cc1n[nH]c(=O)nc1NC(C)c1ccccc1 (centres unmarked)	4.37%
Cc1nn2c3c(cnc2c1-c1ccccc1)C(=O)CC(c1ccccc1)C3 (centres unmarked)	16.1%
O=C(O)c1ccc(-n2c(-c3cc(C4CC4)[nH]n3)n[nH]c2=S)cc1	11.9%
COc1ccc(C2(C(=O)NCCc3ccccc3)CCCC2)cc1OC	7.39%
C/C(=N\NC(=O)c1cc2ccccc2cc1O)c1ccccn1	10.5%
COc1ccc(CNC(=O)CN2C(=O)C3C4C=CC(C4)C3C2=O)cc1 (centres unmarked)	15.3%
COc1cccc(/C=N/n2nnnc2N)c1OCC#N	13.1%
CCN(CC)C(=O)Cn1cc(C(=O)C(=O)NCc2cccs2)c2ccccc21	-9.68%
COc1ccccc1N1CCN(CC(=O)Nc2c(C)n[nH]c2C)CC1	13.2%
CCn1ccnc1CN(C)C(=O)c1cc(COc2ccccc2SC)on1	10.9%
C=CCNC(=S)N1CCc2[nH]c3ccccc3c2C1	12%
Cc1oc(-c2ccc(Cl)cc2)[n+]([O-])c1C.Cl	13.3%
COc1ccccc1C(=O)NC(CCSC)C(=O)NNC(=O)c1ccccc1C (centres unmarked)	9.3%
Cn1cc(CN2CCN(c3cnccn3)CC2)c(-c2cccc(Cl)c2)n1	10.2%
Cc1ccc(Cn2c3ccccc3c3cn[nH]c(=O)c32)cc1	7.86%
CC(=O)NC1C(c2nc3ccccc3s2)=C(c2ccccc2)C(=O)N1c1ccc(C)cc1 (centres unmarked)	16.6%
O=C(C1=C[C@H](C2CCCCC2)C[C@H](OCCCCO)O1)N1CCN(Cc2ccc3c(c2)OCO3)CC1	-10.4%
CCSC1=NCCN1C(=O)c1ccc(S(=O)(=O)N(C)C)cc1	21.5%
O=C(COC(=O)c1ccccc1O)Nc1cc([N+](=O)[O-])ccc1Cl	7.62%
